# Results from PubChem BioAssay AID540317 (National Center for Advancing Translational Sciences (NCATS), 2011).
# Among all 390,000 compounds or so, about 2,200 (0.56%) were called active. Inconclusive results, whose numbers are uncertain, are shown with a selection of clear calls. The call rests on the fitted dose curve; in most records, active means well fitted inhibition curve with a large enough effect; inconclusive means small, poorly fitted or top-dose-only effect; inactive means no such curve, though single readings can be large or run the other way. Potencies beside an inconclusive call are fits to weak or partial responses and may not hold up.
# Molecular target: Chromobox protein homolog 1 (Homo sapiens) (UniProt P83916)
# Test: HTS for Inhibitors of HP1-beta Chromodomain Interactions with Methylated Histone Tails; further: nearly all actives have a fitted effect of over 70% in size
# Settings: AlphaScreen HP1-beta / biotin-H3K9me3 peptide binding; series mostly up to 114 µM
# In short: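 HP1-beta protein (50 nM final) preincubated 30 min at room temperature with biotinylated H3(1-18)K9me3 peptide (50 nM) in PBS pH 7.4, 0.01% Tween-20, then compound added for 30 min. AlphaScreen streptavidin donor/nickel chelate acceptor beads (10 ug/mL final), 30 min dark, luminescence read.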
# Potency means the concentration at half of the fitted maximal effect; tags describe the fitted curve by direction and shape.
# UniProt P83916, sequence (P83916 whole entry, looked up): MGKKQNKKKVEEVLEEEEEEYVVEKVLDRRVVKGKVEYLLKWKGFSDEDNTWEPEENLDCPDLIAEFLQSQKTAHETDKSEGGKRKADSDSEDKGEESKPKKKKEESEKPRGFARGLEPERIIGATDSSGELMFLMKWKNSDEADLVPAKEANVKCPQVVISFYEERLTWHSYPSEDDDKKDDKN
row,SMILES,Potency
1,O=S(=O)(c1ccc(Cl)cc1)c1cc(O)ccc1O,"inconclusive: 20 µM [inhibitor, full curve]"
2,Cc1cccc(-n2c(=S)[nH]c3c(oc4ccccc43)c2=O)c1,inactive
3,O=c1oc(-c2cccs2)nc2sc3c(c12)CCCC3,inactive
4,COC(=O)c1sc(NC(=O)c2cccc([N+](=O)[O-])c2)c(C(N)=O)c1C,"inconclusive: 28.2 µM [inhibitor, partial curve]"
5,CCN(CC)S(=O)(=O)c1ccc(C)c(NC(=O)CN2CCN(Cc3ccccc3)CC2)c1,"inconclusive: 28.2 µM [inhibitor, single point]"
6,O=C(/C=C/c1ccco1)Nc1nc(-c2ccc(F)c(F)c2)cs1,inactive
7,Cc1ccc2c(c1)C(=O)C(=O)N2CCCOc1ccccc1,"inconclusive: 44.7 µM [inhibitor, partial curve, poor fit]"
8,COc1ccc(-n2c(-c3ccc(C)cc3)cc3c2CC(C)(C)CC3=O)c(OC)c1,"inconclusive: 14.1 µM [inhibitor, full curve, poor fit]"
9,O=C(O)CNS(=O)(=O)c1ccc2c(c1)Cc1cc(S(=O)(=O)NCC(=O)O)ccc1-2,inactive
10,O=C1C(=O)c2c(ccc3ccccc23)-c2ccccc21,inactive
11,COc1ccc(-c2nc(SCC(=O)NCCc3ccccc3)n[nH]2)cc1,inactive
12,CC1=CC(=C2N=C(c3ccccc3)OC2=O)C=C(C)O1,"inconclusive: 20 µM [inhibitor, partial curve, poor fit]"
13,CCOc1ccc(NC(=O)C(C)n2c(=O)cc(C)c3c(C)nn(-c4ccccc4)c32)cc1 (stereo unspecified),"inconclusive: 89.1 µM [inhibitor, single point]"
14,O=[N+]([O-])c1ccccc1/C=C/CN1CCSCC1,"inconclusive: 17.8 µM [inhibitor, full curve]"
15,O=C(COc1ccccc1)NC(NC(=S)Nc1ccccc1C(=O)O)C(Cl)(Cl)Cl (stereo unspecified),"inconclusive: 28.2 µM [inhibitor, partial curve, poor fit]"
16,Cc1cccc2sc(N(Cc3cccnc3)C(=O)C3COc4ccccc4O3)nc12 (stereo unspecified),inactive
17,O=C(CN1C(=O)CC(c2ccco2)Sc2ccccc21)Nc1ccc2c(c1)OCCO2 (stereo unspecified),"inconclusive: 31.6 µM [inhibitor, single point]"
18,O=C1CSC(=S)N1/N=C/C=C/c1ccccc1,"inconclusive: 10 µM [inhibitor, partial curve, poor fit]"
19,COc1ccc(NC(C)=[N+](C)CCNS(=O)(=O)c2ccc(Cl)cc2)cc1,"inconclusive: 56.2 µM [inhibitor, partial curve, poor fit]"
20,O=C(/C(=C/O)N=Nc1ccccc1)c1ccc(Cl)cc1,"inconclusive: 15.8 µM [inhibitor, full curve, poor fit]"
21,CCN(CC)C1Oc2cc3c(cc2C(c2cccc(OC)c2O)C1C)OCO3 (stereo unspecified),"inconclusive: 39.8 µM [inhibitor, partial curve]"
22,Cc1ccc(NC(=O)CN(C)CC(=O)Nc2ccccc2Oc2ccccc2)cc1,active: 17.8 µM
23,COC1CCCCC1Nc1ccc(C)c(C)c1 (stereo unspecified),"inconclusive: 22.4 µM [inhibitor, full curve, poor fit]"

row,SMILES,Potency
1,CCCOC(=O)c1c(NC(=O)C2C3C=CC(C3)C2C(=O)O)sc2c1CCC(C)C2 (stereo unspecified),"inconclusive: 5.62 µM [inhibitor, full curve, poor fit]"
2,Cc1c(Cl)cccc1NC(=O)Cn1c(CCC(=O)O)ccc1-c1ccc(Cl)cc1,"inconclusive: 89.1 µM [inhibitor, single point]"
3,CCOc1ccc(/C=N/N(C)c2ccccc2)cc1OC,"inconclusive: 50.1 µM [inhibitor, partial curve]"
4,O=C(NNc1c2ccccc2nc2ccccc12)c1cccc(O)c1,"inconclusive: 15.8 µM [inhibitor, full curve, poor fit]"
5,CCc1ccc2[nH]c(C(=O)N(C)c3ccc(F)cc3F)cc2c1,inactive
6,O=C(N1CCc2cc(S(=O)(=O)NC[C@H]3O[C@@H](n4ccc(=O)[nH]c4=O)[C@H](O)[C@@H]3O)ccc2C1)C(F)(F)F,inactive
7,Cc1c(NC(=S)Nc2cccc(Cl)c2)c(=O)n(-c2ccccc2)n1C,inactive
8,Cc1c(C)n(C)c2ccc(C(=O)NCCc3ccco3)cc12,"inconclusive: 50.1 µM [inhibitor, partial curve]"
9,O=C(CC1C(=O)NCCN1Cc1cccc(F)c1)NCCCN1CCCC1=O (stereo unspecified),inactive
10,O=C(CCCN1C(=O)C2CC=CCC2C1=O)Nc1cccc(F)c1 (stereo unspecified),inactive
11,CC(C)COCc1ccc(O)c2ncccc12,inactive
12,c1ccc(-c2csc(Nc3ccc4c(c3)OCCO4)n2)cc1,inactive
13,Oc1ccc(-c2nc3ccc4ccccc4c3c3c2CCC3)cc1O,"inconclusive: 56.2 µM [inhibitor, partial curve, poor fit]"
14,COc1ccc(Cc2nnc(NS(=O)(=O)c3ccccc3)s2)cc1,inactive
15,Cc1ccc(NS(=O)(=O)c2ccc(NC(=O)c3cccs3)cc2)cc1,inactive
16,COc1ccccc1CNC(=O)CCn1cnc2ccccc2c1=O,"inconclusive: 15.8 µM [inhibitor, partial curve, poor fit]"
17,COc1ccc([N+](=O)[O-])cc1NC(=S)Nc1ccccc1,inactive
18,c1ccc(N2CCN(c3nc(-c4ccccn4)nc4ccccc34)CC2)cc1,"inconclusive: 12.6 µM [inhibitor, partial curve, poor fit]"
19,N#CC(c1cccc(Cl)c1)c1ccc2c(C(F)(F)F)cc(C(F)(F)F)nc2n1 (stereo unspecified),active: 10 µM
20,COc1ccc(N2CCN(C(=O)CNS(=O)(=O)c3ccc(Br)s3)CC2)cc1,"inconclusive: 70.8 µM [inhibitor, partial curve, poor fit]"
21,COCCCN=C1NN=C(c2cc(C)n(Cc3ccco3)c2C)CS1,inactive
22,CCN(CC)CCCn1c(=S)[nH]c2ncccc2c1=O,"inconclusive: 89.1 µM [inhibitor, single point]"
23,COc1ccc(OCC(=O)Nc2ccc(S(=O)(=O)Nc3nc(C)cc(C)n3)cc2)cc1,inactive
